{"sequences": {"note": "Sequences of proteins named here, by UniProt entry; tags and fusion partners are left off.", "UniProt P10085": "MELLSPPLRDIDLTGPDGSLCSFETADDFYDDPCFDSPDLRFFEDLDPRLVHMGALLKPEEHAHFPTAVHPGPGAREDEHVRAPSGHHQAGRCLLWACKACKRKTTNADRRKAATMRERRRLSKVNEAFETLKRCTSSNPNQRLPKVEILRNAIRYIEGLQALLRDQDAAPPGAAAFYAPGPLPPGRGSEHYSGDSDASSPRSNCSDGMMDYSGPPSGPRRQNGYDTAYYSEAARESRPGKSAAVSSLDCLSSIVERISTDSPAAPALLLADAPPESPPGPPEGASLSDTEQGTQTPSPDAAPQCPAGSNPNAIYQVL"}, "source": "paper PMC4993004", "key": {"[1]": {"target": "MyoD (mouse (endogenous in C2C12)) (UniProt P10085)", "test": "co-IP; anti-MyoD immunoprecipitates from extracts of C2C12 cells grown in GM, or in DM with SB203580 (5 uM); western blot for KMT1A; control IgG"}, "[2]": {"target": "MyoD (mouse (endogenous in C2C12)) (UniProt P10085)", "test": "condition: only cells induced to differentiate in DM without SB (p38α active); co-IP; anti-MyoD immunoprecipitates from extracts of C2C12 cells induced to differentiate in DM without SB; western blot for KMT1A"}}, "note": "No constants are given. Whether binding was seen depends on the method and setting. In cells and extracts the contact can be indirect. Some entries that bind do so weakly or less than the wild type."}
{"binder": "KMT1A (lysine methyltransferase 1A) (protein, UniProt O54864 1-412) MAENLKGCSVCCKSSWNQLQDLCRLAKLSCPALGVSKKNLYDFEVEYLCDYKKIREQEYYLVKWRGYPDSENTWEPRQNLKCIRVLKQFHKDLERELVRRHRRSKPPRHLDPNLANYLVQKAKQRRALQRWEQELNAKRSHLGRITVENEVDLDGPPRSFVYINEYRVGEGITLNQVAVGCECQDCLLAPTGGCCPGASLHKFAYNDQGQVRLKAGQPIYECNSRCCCGYDCPNRVVQKGIRYDLCIFRTNDGRGWGVRTLEKIRKNSFVMEYVGEIITSEEAERRGQIYDRQGATYLFDLDYVEDVYTVDAAYYGNISHFVNHSCDPNLQVYNVFIDNLDERLPRIAFFATRTIWAGEELTFDYNMQVDPVDMESTRMDSNFGLAGLPGSPKKRVRIECKCGTTACRKYLF", "values": [{"measurement": "binding", "setting": "[1]", "value": "binds"}, {"measurement": "binding", "setting": "[2]", "value": "no binding"}]}
